Laboratory results from PubChem BioAssay AID488969 (Vanderbilt High Throughput Screening Facility, 2010).
In all, about 110,000 compounds were measured (“z-score”: median about -0.1, highest 2% from about 2 on). This is one part of the list. Active and inactive are the calls of the source.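 How the source made its calls: active means z-score in the third read window above 3 or below -3; inactive means the rest.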

Target: Metabotropic glutamate receptor 8 (Rattus norvegicus) (UniProt P70579)
Test: rat mGluR8 modulators via GIRK flux, primary screen, cell-based, thallium flux, HTS (AID 488969)
Details: HEK293 rat mGluR8, GIRK (G protein-gated inwardly rectifying potassium channel) thallium flux, FluoZin2; at 10 µM; stronger effect = higher value; submaximal glutamate (EC20) added with thallium

UniProt P70579, sequence (P70579 whole entry, looked up): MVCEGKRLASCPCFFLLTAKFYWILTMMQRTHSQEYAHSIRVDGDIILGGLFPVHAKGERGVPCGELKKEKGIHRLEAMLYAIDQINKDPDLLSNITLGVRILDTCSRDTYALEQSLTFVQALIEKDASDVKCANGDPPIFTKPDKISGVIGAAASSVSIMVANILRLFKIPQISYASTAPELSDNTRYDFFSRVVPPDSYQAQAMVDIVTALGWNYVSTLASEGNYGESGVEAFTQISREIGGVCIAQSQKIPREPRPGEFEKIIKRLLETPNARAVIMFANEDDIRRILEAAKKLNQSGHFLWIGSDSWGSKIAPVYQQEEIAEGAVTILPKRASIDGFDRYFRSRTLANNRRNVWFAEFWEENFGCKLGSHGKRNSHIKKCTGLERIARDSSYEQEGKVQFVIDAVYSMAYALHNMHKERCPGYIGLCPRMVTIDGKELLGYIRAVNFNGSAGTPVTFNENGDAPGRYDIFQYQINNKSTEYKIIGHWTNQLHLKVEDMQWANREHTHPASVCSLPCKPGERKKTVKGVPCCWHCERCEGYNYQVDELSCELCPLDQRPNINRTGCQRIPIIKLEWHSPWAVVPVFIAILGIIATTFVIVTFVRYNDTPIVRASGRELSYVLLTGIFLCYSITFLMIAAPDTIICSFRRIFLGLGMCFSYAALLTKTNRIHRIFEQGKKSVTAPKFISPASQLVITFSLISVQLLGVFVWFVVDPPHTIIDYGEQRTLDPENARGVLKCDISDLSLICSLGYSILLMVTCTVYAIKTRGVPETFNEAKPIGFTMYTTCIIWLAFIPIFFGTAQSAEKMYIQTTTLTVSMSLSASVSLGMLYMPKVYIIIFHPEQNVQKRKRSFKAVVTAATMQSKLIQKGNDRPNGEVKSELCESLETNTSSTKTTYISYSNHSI

Row | Compound | z-score
1 | CC1CCCCC1NC(=O)CSCC(=O)O (stereo not given) | -0.0424
2 | Cc1ccc(NC(=O)C(CC(C)C)NC(N)=O)cc1 (stereo not given) | -0.23
3 | Cc1ccc(NC(=O)c2sc3nc[nH]c(=O)c3c2C)c(C)c1 | -0.214
4 | CCC(CC)n1[nH]c(=O)cc1N | -0.356
5 | Cc1ccc(C)c(NS(=O)(=O)c2cc(C(N)=O)ccc2C)c1 | -0.155
6 | O=C(COC(=O)CCC(=O)c1cccs1)NCc1ccco1 | 0.176
7 | CCOc1ccccc1N1CCN(C(=O)CCCN2C(=O)c3cccc4cccc(c34)C2=O)CC1 | -0.743
8 | CCOC(=O)C1CCCCN1Cc1ccc(F)cc1 (stereo not given) | 0.191
9 | CCC1CCc2c(sc(N)c2C(N)=O)C1 (stereo not given) | -0.0172
10 | CCOc1ccc(NC(=O)NC23CC4CC(CC(C4)C2)C3)cc1 | active: 4.76
11 | CC1(C)Cc2c(c(-c3ccccc3)nc(N3CCOCC3)c2C(N)=O)CO1 | -0.0493
12 | COc1ccccc1-c1nnc2sc(-c3cc4ccccc4o3)nn12 | -0.509
13 | CC(C)(C)c1ccccc1NC(=O)c1cccnc1 | -0.269
14 | Cc1ccc(S(=O)(=O)NC(=O)COc2ccccc2C)cc1 | -0.0338
15 | Cc1c(C(=O)NCc2ccc3c(c2)OCO3)sc2nc(-c3ccccc3)cn12 | -0.308
16 | O=C(c1ccc2nc3ccc(Cl)cc3c(=O)n2c1)N1CCOCC1 | -0.0431
17 | O=C(NCc1ccco1)C1CCN(C(=O)c2cc3sccc3n2Cc2ccc(F)cc2)CC1 | -0.504
18 | CCCCCCCCn1c(=O)c(C(=O)OCC)c(O)c2ccccc21 | -0.919
19 | COC(=O)c1c(NC(=O)COC(=O)c2ccc(O)cc2)sc2c1CCCCC2 | -0.28
20 | CC(C)CNC(=S)NC(=O)c1ccc(F)cc1 | active: 7.84
21 | Cc1ccc(C(=O)CC2(O)C(=O)N(C)c3ccccc32)o1 (stereo not given) | -0.229
22 | COCCN(C(=O)C1CC1)c1nnc(-c2ccc(C)cc2)s1 | -0.0888

Row | Compound | z-score
23 | O=C1c2cccc3cccc(c23)C(=O)N1CCN1CCN(CC(O)COc2ccccc2)CC1 (stereo not given) | 0.169
24 | COc1cc(C(C)=O)ccc1COc1ccc(C(=O)OCC(=O)NC2CCS(=O)(=O)C2)cc1OC (stereo not given) | -0.225
25 | CC(=O)c1ccc(Oc2cc(-c3ccccc3)nc(-c3ccccc3)n2)cc1 | -0.244
26 | OCCNc1c2ccccc2nc2c(F)c(F)c(F)c(F)c12 | 0.45
27 | C=C(C)c1cccc(C(C)(C)NC(=O)N2CCN(C/C=C/c3ccccc3)CC2)c1 | -0.794
28 | Cn1c(SCCOc2cccc(Cl)c2)nnc1-c1ccncc1 | -0.17
29 | CC(=O)Oc1ccc2c(c1)c(C(C)=O)c(C)n2C | -0.312
30 | COc1cc(/C=C2/SC(=S)N(c3ccccc3)C2=O)ccc1Oc1nc(N2CCOCC2)nc(N2CCOCC2)n1 | -0.0521
31 | C=CCn1c(-c2ccccc2)ccc(C#N)c1=O | -0.338
32 | COc1ccc(-n2c(SC3CCOC3=O)nc3ccccc32)cc1 (stereo not given) | -2.32
33 | CC(=O)Nc1cccc(OCC(=O)Nc2ccccc2)c1 | 0.915
34 | CCCSc1nc(NCc2ccco2)c2c3c(sc2n1)COC(C)(CC)C3 (stereo not given) | -0.281
35 | COc1cccc(-n2c(Cn3nc(C(F)F)cc3C(F)F)n[nH]c2=S)c1 | -0.302
36 | Cn1c(-c2ccc(C=O)s2)nc2c3ccccc3c3ccccc3c21 | -2.05
37 | CC(C)c1ccc(NC(=O)N(CCc2nc3ccccc3[nH]2)C2CCCC2)cc1 | 1.15
38 | Cc1nn(-c2ccccc2)c(C)c1/C=N/NC(=O)c1cccs1 | -2
39 | CCCCCCN1C2=NCCN2c2ccccc21 | active: 7.63
40 | CCCN1CCN(CCCNC(=O)Cn2nc(-c3ccc(Cl)cc3)ccc2=O)CC1 | -0.145
41 | Cc1ccccc1-c1nc(CN2CCC(C(=O)N3CCC(C(N)=O)CC3)CC2)c(C)o1 | 0.315
42 | Cc1cc(C)n(Cc2n[nH]c(=S)n2Cc2ccccc2)n1 | 0.459
43 | CCC(C)NC(=O)c1ccccc1NS(=O)(=O)c1ccc(OC)c(OC)c1 (stereo not given) | 0.161
44 | C#CCOc1nc(OCC#C)nc(OCC#C)n1 | 0.0178

Row | Compound | z-score
45 | CCOC(=O)Cn1cnc2c(cnn2-c2ccc(Cl)cc2)c1=O | 0.187
46 | O=C(COC(=O)c1ccccc1Nc1cccc(C(F)(F)F)c1)NCc1ccco1 | -0.0996
47 | Cc1ccc(S(=O)(=O)N(CC(=O)O)Cc2ccccc2F)cc1 | -0.0921
48 | COC(=O)C1=C(C(C)=O)C(c2ccc(C)cc2)n2nnnc2N1 (stereo not given) | 1.36
49 | Cc1ccc(N2C(=O)NC(NC(=O)C3CC3)(C(F)(F)F)C2=O)cc1 (stereo not given) | -0.133
50 | CNC(=S)N1N=C(c2ccc(C)cc2)CC1c1ccc(OC)c(OC)c1 (stereo not given) | -0.191
51 | CCCC(C)C(=O)Nc1nc(C)c(-c2csc(Nc3cc(OC)ccc3OC)n2)s1 (stereo not given) | 0.302
52 | CCOC(=O)CSc1nnc([C@@H](NC(=O)OC(C)(C)C)C(C)C)o1 | -0.158
53 | COc1cccc(NC(=S)N2CCCC2)c1 | -0.239
54 | CCc1cccc(CC)c1NC(=O)COC(=O)c1ccccc1-c1nc2ccccc2s1 | -0.194
55 | CCSc1nnnn1-c1ccccc1 | -0.0524
56 | CCCc1nnc(NC(=O)CCC(=O)Nc2ccc(F)cc2)s1 | -1.03
57 | CCOC(=O)c1ccccc1NC(=O)Nc1ccc(OC)c(OC)c1 | 0.154
58 | Cc1sc(NC(=O)CSc2nnc(C(C)C)n2C)c(C#N)c1C | 1.76
59 | C#CC[N+](CC)(CC)CC#Cc1cccc(Cl)c1 | -0.0419
60 | CC(=O)NC1C(=O)Nc2c1cccc2C(F)(F)F (stereo not given) | -0.302
61 | O=C(N/N=C/c1cccs1)c1cccc(NC(=O)c2ccccc2Cl)c1 | -0.218
62 | CCC(C(=O)NC1CCCCC1)N(CC1CCCO1)C(=O)CNS(=O)(=O)c1ccc(OC)cc1 (stereo not given) | 0.0163
63 | Cc1csc(-c2cnn(-c3ccccc3)c2NC(=O)c2cccc(C(F)(F)F)c2)n1 | -0.637
64 | CCN(CC(=O)O)S(=O)(=O)c1cc(Cl)ccc1Cl | -0.13
65 | COc1ccc(C(=O)NNc2ccccc2)cc1OC | -0.385
66 | O=C(CN1C(=O)C2CC=C(Cl)CC2C1=O)Nc1ccc(C(=O)O)cc1 (stereo not given) | -0.407

Row | Compound | z-score
67 | COCCNS(=O)(=O)c1cccc2cccnc12 | -0.403
68 | COc1cccc(NC(=O)c2ccccc2NS(C)(=O)=O)c1 | 0.815
69 | COc1cc(CNC2CCC(C)C2)cc(OC)c1 (stereo not given) | 0.0941
70 | COC(=O)c1c(NC(=O)CC2SC(N)=NC2=O)sc2c1CCCC2 (stereo not given) | -0.275
71 | CNc1nc(C)c(C(=O)OCc2ccccc2)s1 | -0.438
72 | O=C(NNC(=S)NCc1ccccc1)c1ccc2c(c1)OCO2 | -0.344
73 | O=C(NC1CCCC1)C(c1ccncc1)N(Cc1ccccc1)C(=O)c1ccc(-c2ccccc2)[nH]1 (stereo not given) | 0.0464
74 | CCOC(=O)c1sc(NC(=O)CN2C(=O)c3cccc4cccc(c34)C2=O)nc1C | -0.0317
75 | Cc1ccc(C(=O)NCCSCc2ccccc2)cc1[N+](=O)[O-] | -0.369
76 | CCOC(=O)Cc1csc(NC(=O)C2CCCN(S(=O)(=O)c3cnc[nH]3)C2)n1 (stereo not given) | -0.322
77 | C/C(=N/N1CCN(c2ccccn2)CC1)c1cccc([N+](=O)[O-])c1 | -0.367
78 | COC(=O)c1[nH]c2ccc(F)cc2c1NC(=O)CCN1CCN(Cc2ccc3c(c2)OCO3)CC1 | -0.752
79 | CCOc1ccc(CCNC(=O)CN2CCN(Cc3ccccc3F)C2=O)cc1OCC | 0.219
80 | COc1ccc(C2N(c3cc(Cl)ccc3OC)C(=O)C3CCCN32)c(OC)c1 (stereo not given) | -0.695
81 | CCOC(=O)N1CCN(C(=O)CCc2ccc(S(=O)(=O)NCCc3ccccc3)cc2)CC1 | -0.186
82 | COc1cccc(C2C3=C(N=c4s/c(=C\c5ccc(O)cc5)c(=O)n42)c2ccccc2CC3)c1OC (stereo not given) | 0.187
83 | CCCNC(=O)CN(C)S(=O)(=O)c1ccc(F)cc1 | 0.0374
84 | CCn1c(SCc2ccc(C#N)cc2)nnc1-c1cccc(Cl)c1 | -0.177
85 | CCc1cccc(CC)c1NC(=O)COC(=O)/C(C#N)=C/c1ccc(OC)cc1 | -0.205
86 | Cc1ccc(C(=O)c2c(C)oc3c2C(=O)C(=O)c2ccccc2-3)cc1 | -0.95
87 | CCOC(=O)N1CCN(c2c(N3CCN(c4cccc(C)c4C)CC3)c(=O)c2=O)CC1 | 0.0202
88 | COc1ccc(OCc2nnc3n2N=C(c2ccc(Br)cc2)CS3)cc1 | 0.109

Row | Compound | z-score
89 | COCC(=O)NCCSc1c(C)[nH]c2ccccc12 | 0.0766
90 | O=c1oc(-c2ccccc2)nc2c1cnn2-c1ccccc1 | -0.85
91 | CCOC(=O)N1CCN(C(=O)C2CCCN(S(=O)(=O)c3cc(C)ccc3OC)C2)CC1 (stereo not given) | -0.0824
92 | Nc1nc(NCc2cccs2)nn1-c1ccccc1 | 1.01
93 | C/C(=N/NC(=O)CN1CCN(S(=O)(=O)c2ccc(Br)cc2)CC1)c1cccnc1 | -0.0379
94 | Cc1cc(C2=NNC(=NC3CC3)SC2)c(C)n1Cc1ccco1 | 1.4
95 | CCOC(=O)c1c(C)oc2ccc(OCC(=O)N(CC)CC)cc12 | 0.0771
96 | CC(C)c1ccccc1NC(=O)CCCC(=O)O | -0.205
97 | Cc1nn2c3c(cnc2c1-c1ccccc1)C(=O)CC(c1ccccc1)C3 (stereo not given) | 0.106
98 | Cc1cccc(NC(=O)Nc2ccc(Oc3c(F)c(F)c(F)c(F)c3F)cc2)c1 | 0.606
99 | CS(=O)(=O)N(CC(=O)Nc1ccccc1Sc1ccccc1)c1cccc(Br)c1 | 0.0382
100 | O=C1NC2(CCCCC2)N=C1c1ccc(Br)cc1 | 0.164
101 | Cn1cc(/C=C2/SC(=O)N(c3ccccc3)C2=O)c2ccccc21 | -0.08
102 | O=S1(=O)NC(=NC2CCCCCC2)c2ccccc21 | -0.0713
103 | CC1=NN(c2ccc(Cl)cc2)C(=O)C1C(c1cccc(O)c1)c1c(C)[nH]n(-c2ccc(Cl)cc2)c1=O (stereo not given) | -0.21
104 | Cc1ccc(S(=O)(=O)/C(C#N)=C/c2c(N3CCC(C(N)=O)CC3)nc3c(C)cccn3c2=O)cc1 | 0.139
105 | COc1ccc(/C=N\NS(=O)(=O)c2ccc(C)cc2)cc1COc1ccccc1[N+](=O)[O-] | 1.32
106 | O=C(/C=C/c1ccccc1)N1CCN(CC(O)COc2ccccc2)CC1 (stereo not given) | -0.361
107 | COc1ccc(C(=O)Nc2ccccc2C(N)=O)cc1 | 0.00668
108 | OC1CN=C2Sc3ccccc3N2C1 (stereo not given) | -0.0741
109 | O=C(Nc1ncc(Cc2ccc(Cl)cc2Cl)s1)c1ccc([N+](=O)[O-])cc1 | -0.384
110 | O=C(COC(=O)c1cc(=O)[nH]c2ccccc12)NC(=O)NC1CCCCC1 | -0.536
